The results in this text go back to US3985779A, “M-phenoxyphenyl propionic acid derivatives and preparation thereof” (Eisai Co., Ltd., priority 1973, dated 1976).

The subject of series [1] is Carrageenin-induced edema. Briefly: Inhibitory activity on Carrageenin-induced Edema in rats (Experiment A). Format: in vivo, rats (male Wistar). Conditions: 3 hours after Carrageenin. On the procedure:
Inhibitory activity on Carrageenin-induced Edema in rats
Carrageenin was used as the agent for inducing edema and 5 male rats of Wistar strain having body weight of about 150 grs. after fasting for 16-17 hours were used as test animals. The inhibitory activity of the test compounds were determined with the paw edema method in accordance with Winter C. A. et al; Proc. Soc. Exp. Biol. Med. 111, 544 (1962).
The compounds were suspended in an aqueous solution of gum arabic and the same were orally administered to the rats at 1 hour before the injection of Carrageenin.
The observation was effected by measuring, after 3 hours the administration of the Carrageenin, the enlarged volumes of hind paw of the rats.
For orientation: In the carrageenan paw model, swelling and tenderness develop within hours.

The test system of another series is Kaolin-induced edema. Briefly: Inhibitory activity on Kaolin-induced Edema in Rats (Experiment B). It is filed as in vivo.
The test system of the next series is writhing syndrome. Briefly: Analgesic activity: antagonism to acetic acid writhing syndrome in mice (Experiment J). Format: in vivo, mice (dd strain male). On the procedure:
Analgesic activity of the compound of the present invention in comparison with the known compounds.
Analgesic activity of the compound was tested as the measure of antagonism to writhing syndrome appeared when 0.1 ml/10g of 0.7% acetic acid was intraperitoneally injected to the dd strain male mice having 17 - 20 grs. body weight which had been abstinence from food for 18 hours.
The compounds under test were orally administered in a form of suspension in a 5% aqueous solution of gum arabic. After one hour from the administration, the onset times required for the writhing syndrome were scored.
In another Experiment in the combined use of the compounds under test and Codeine phosphate, 10 - 20 mg/kg of Codeine phosphate were orally administered immediatly after the oral administration of the compounds under test.

Another series deals with stomachs of the rats. Format: in vivo. As to conditions: 50 mg/kg oral; score 0 (nothing unusual) to 10 (considerable irritability with bleeding). From the text:
Observation of gastric irritability
Gastric irritability due to oral administration of the compounds as edema inhibitory agent was studied by macroscopical observation of the dissected stomachs of the rats which had been employed for determination of the edema inhibitions mentioned in the preceding paragraphs. The degrees of the irritability observed were scored in the 0 to 10 ratings depending upon the extent of errosions and bleedings of the stomachs, wherein the rating of 0(zero) means "nothing unusual", the rating of 10 means a state of considerable gastric irritability with bleeding and the remainders mean the intermediate degree of gastric irritability.

The test system of the next series is yeast-induced pyrexia. Nature of the series: Antipyretic activity to the yeast-treated rats (Experiment I). It is filed as in vivo, rats (Wistar strain male). On the procedure: To Wistar strain male rats having about 300 - 350 grs. body weight, an aqueous suspension of yeast was subcutaneously injected to induce pyrexia.
At the lapse of 4 hours since the dose of the yeast suspension, the compounds under test given in hereinaftermentioned Table 10 in a form of suspension in a 5% gum arabic aqueous solution are orally administered. The rectal temperatures of the rats were measured periodically by means of a thermister-type thermometer sold by Japan Koden K.K. As control, said 5% gum arabic aqueous solution alone was administered.

Where only a bound is given, the exact number is not on record here.

On to `CC(C(=O)O)c1cccc(Oc2ccc(F)cc2)c1` (stereo not drawn) [(7)], for which the “% of Inhibition” value is on record as 22% in series [1] (oral 2.0 mg/kg); 23% in series [1] (oral 10.0 mg/kg); 32% in series [1] (oral 50.0 mg/kg); 6% in the series with Kaolin-induced edema (after 3 hrs, oral 10 mg/kg); 8% in the series on Kaolin-induced edema (after 3 hrs, oral 50 mg/kg); 12% in the series with Kaolin-induced edema (after 5 hrs, oral 10 mg/kg). The “% of Inhibition” value with Kaolin-induced edema (after 5 hrs, oral 50 mg/kg) is 16%; in the series with Kaolin-induced edema (after 7 hrs, oral 10 mg/kg) it was 6%; in the series on Kaolin-induced edema (after 7 hrs, oral 50 mg/kg) it was 8%. The “Edema density ± S.E.” value in series [1] (oral 2.0 mg/kg) is “.422 ± .040”; in series [1] (oral 10.0 mg/kg), “.418 ± .038”; in series [1] (oral 50.0 mg/kg), “.368 ± .073”. Further, the “Edema D. ± S.E.” value was “.393 ± .047” in the series with Kaolin-induced edema (after 3 hrs, oral 10 mg/kg); “.386 ± .050” with Kaolin-induced edema (after 3 hrs, oral 50 mg/kg); “.496 ± .045” in the series on Kaolin-induced edema (after 5 hrs, oral 10 mg/kg); “.473 ± .040” in the series with Kaolin-induced edema (after 5 hrs, oral 50 mg/kg); “.568 ± .046” in the series with Kaolin-induced edema (after 7 hrs, oral 10 mg/kg); “.555 ± .035” in the series on Kaolin-induced edema (after 7 hrs, oral 50 mg/kg).
As for `COc1ccc2c3c1O[C@H]1[C@@H](O)C=C[C@H]4[C@@H](C2)N(C)CC[C@@]341` [Codeine Phosphate], the results for the “Onset time of writhing syndrome, mean ± S.E.” value (“Onset time” below) in the series on writhing syndrome (control line (5% G.A.) with Codeine Phosphate 10 mg/kg) and with writhing syndrome (control line (5% G.A.) with Codeine Phosphate 20 mg/kg) were 4.8 ± 0.5 min and 5.7 ± 0.6 min, respectively.
With `CC(C(=O)O)c1cccc(Oc2ccccc2)c1` (stereo not drawn) [Compound (1), reference compound], the “% of Inhibition” value worked out at 23% in series [1] (oral 2.0 mg/kg); 40% in series [1] (oral 10.0 mg/kg, 10 mg/kg); 44% in series [1] (oral 50.0 mg/kg); 25% in the series on Kaolin-induced edema (after 3 hrs, oral 10 mg/kg); 42% with Kaolin-induced edema (after 3 hrs, oral 50 mg/kg); 28% with Kaolin-induced edema (after 5 hrs, oral 10 mg/kg). Besides, the “% of Inhibition” value turned out to be 52% with Kaolin-induced edema (after 5 hrs, oral 50 mg/kg); 8% with Kaolin-induced edema (after 7 hrs, oral 10 mg/kg); 41% with Kaolin-induced edema (after 7 hrs, oral 50 mg/kg). Also, the “Edema density ± S.E.” value was “.417 ± .032” in series [1] (oral 2.0 mg/kg); “.323 ± .075” in series [1] (oral 10.0 mg/kg, 10 mg/kg); “.300 ± .045” in series [1] (oral 50.0 mg/kg). In addition, the “Degree of gastric irritability” value in the series on stomachs of the rats stood at 3. Besides, the “Onset time” value with writhing syndrome (10 mg/kg p.o. combined with Codeine Phosphate 10 mg/kg) came out at 5.3 ± 0.5 min; with writhing syndrome (10 mg/kg p.o. combined with Codeine Phosphate 20 mg/kg), 7.3 ± 1.2 min; in the series with writhing syndrome (20 mg/kg p.o. combined with Codeine Phosphate 10 mg/kg) it was 8.2 ± 1.3 min; with writhing syndrome (20 mg/kg p.o. combined with Codeine Phosphate 20 mg/kg), 7.8 ± 1.2 min; with writhing syndrome (40 mg/kg p.o. combined with Codeine Phosphate 10 mg/kg) it was 10.3 min; with writhing syndrome (40 mg/kg p.o. combined with Codeine Phosphate 20 mg/kg), 13.8 ± 0.7 min. Also, the “Onset time” value with writhing syndrome (80 mg/kg p.o. combined with Codeine Phosphate 10 mg/kg) amounted to 11.8 ± 1.1 min; in the series with writhing syndrome (80 mg/kg p.o. combined with Codeine Phosphate 20 mg/kg), 13.8 ± 0.8 min; in the series on writhing syndrome (test compound alone, 10 mg/kg p.o.) it was 3.9 ± 0.3 min; in the series on writhing syndrome (test compound alone, 20 mg/kg p.o.), 7.1 ± 1.8 min; in the series with writhing syndrome (test compound alone, 40 mg/kg p.o.), 5.2 ± 1.4 min; in the series on writhing syndrome (test compound alone, 80 mg/kg p.o.) it was 8.1 ± 1.7 min. For the same compound, the minimal effective dose is more than 20 mg/kg in the series with writhing syndrome (Mus musculus, 1 h, single oral administration, read-out: dose with significant antagonism / retardation of writhing syndrome) and more than 5 mg/kg in the series on yeast-induced pyrexia (Rattus norvegicus, po, read-out: dose with apparent antipyretic activity). Further, the “Edema D. ± S.E.” value with Kaolin-induced edema (after 3 hrs, oral 10 mg/kg) was “.313 ± .016”; in the series with Kaolin-induced edema (after 3 hrs, oral 50 mg/kg) it was “.245 ± .050”; in the series with Kaolin-induced edema (after 5 hrs, oral 10 mg/kg), “.406 ± .019”; in the series with Kaolin-induced edema (after 5 hrs, oral 50 mg/kg), “.272 ± .053”; with Kaolin-induced edema (after 7 hrs, oral 10 mg/kg), “.560 ± .017”; with Kaolin-induced edema (after 7 hrs, oral 50 mg/kg) it was “.356 ± .065”. Further, in the series with yeast-induced pyrexia (p.o.), the “dose with maximum antipyretic activity” value came out at 20 mg/kg.
